Among all 420,000 compounds or so, about 50,000 (12%) were called active. The shares of active, inactive and inconclusive entries below differ from those in the screen. Calls come from the whole dose curve; as a rule, active = well fitted inhibition curve with a large enough effect; inconclusive = small, poorly fitted or top-dose-only effect; inactive = flat fitted curve, though single readings scatter. Potencies of inconclusive entries are left out as doubtful fits.
Test: qHTS for Inhibitors of human tyrosyl-DNA phosphodiesterase 1 (TDP1): qHTS in cells in presence of CPT; note: nearly all actives have a fitted effect of over 55% in size
Conditions: chicken DT40 Tdp1-/-;hTDP1 cells + 20 nM CPT, ATP luminescence, 48 h; activity change, negative = growth inhibition: at 46.2 µM (top of the series)
How it was run: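 Chicken DT40 Tdp1-/- cells complemented with human TDP1, 400 cells/well, exposed to compounds plus 20 nM camptothecin for at least 48 h at 37 C; viability read as ATP content by CellTiter-Glo luminescence.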
With `CCOc1ccc(Br)cc1C(=O)N/N=C/c1ccccn1` the Potency was inconclusive [inhibitor, single point].
With `CSc1cccc(N2CC(C(=O)Nc3cccc(S(=O)(=O)N4CCCC4)c3)CC2=O)c1` (stereo not given) the Potency was active: 20.6 µM.
For `COc1ccc(Cl)cc1NC(=O)Cn1cc(C(=O)c2ccncc2)c(=O)c2cc(C)ccc21`, the Potency was inconclusive [inhibitor, single point].
With `O=C(c1ccc2c(c1)OCO2)C1CCCN(C2CCN(CCc3ccccc3)CC2)C1` (stereo not given) the Potency was active: 18.4 µM.
With `CC(C)NC(=O)c1ccc(-n2c(-c3ccccc3)cc3c2CCCCC3)cc1` the Potency was inconclusive [inhibitor, single point].
With `COC(=O)C1C(=O)C2=C(CC1C)NC(C)=C(C(=O)OC1CCCC1)C2c1ccc(N(C)C)cc1` (stereo not given) the activity change, negative = growth inhibition was inconclusive: -31.3% [inhibitor].
For `O=C1CN(C(=O)/C=C/c2ccc(Br)cc2)CCN1`, the “activity change, negative = growth inhibition” value was inactive: 3.09%.
With `Cc1noc(C)c1COC(=O)C1CCN(S(=O)(=O)c2c(Cl)cccc2Cl)CC1` the “activity change, negative = growth inhibition” value was inactive: -2.06%.
For `O=C(Nc1ccc2c(c1)OCO2)c1noc2c1CCCCC2`, the activity change, negative = growth inhibition was inconclusive: -34.1% [inhibitor].
For `Cc1ccc(NC2CCCN(C(=O)c3ccc(-n4ccnc4)cc3)C2)cc1C` (stereo not given), the “activity change, negative = growth inhibition” value was inactive: -16.1%.
In the case of `CN(CC(=O)Nc1ccc(F)c(F)c1F)C(=O)CCc1nc2sc3c(c2c(=O)[nH]1)CCCC3`, the “activity change, negative = growth inhibition” value is reported as inactive: -0.948%.
For `C[C@H](NC(=O)c1nc[nH]c1C(=O)NCc1ccccc1)C(=O)OC(C)(C)C`, the Potency was inconclusive [inhibitor, single point].
With `CCc1nc2cc(NC(=O)C3(C)CCCN(C(C)=O)C3)ccc2o1` (stereo not given) the “activity change, negative = growth inhibition” value was inactive: -6.94%.
In the case of `CCC1Sc2ccc(S(=O)(=O)CCC(=O)Nc3ccc(C(=O)OC)cc3)cc2NC1=O` (stereo not given), the Potency is reported as inconclusive [inhibitor, single point].
In the case of `COc1ccc2cc(Br)ccc2c1CC(=O)NCC1CCCO1` (stereo not given), the Potency is reported as inconclusive [inhibitor, partial curve, poor fit].
For `FC(F)(F)c1ccc(Sc2n[nH]c(C(F)(F)F)n2)nc1`, the Potency was inconclusive [inhibitor, single point].
For `O=C(NCc1ccc(F)cc1)c1cccc2c1C(=O)N(Cc1cccnc1)C2`, the “activity change, negative = growth inhibition” value was inactive: -15.8%.
In the case of `CCCN(Cc1ccccc1)C(=S)Nc1ccc(OCC)cc1`, the Potency is reported as inconclusive [inhibitor, single point].
For `NC(=S)N/N=C/c1cccc(/C=N/NC(N)=S)c1`, the “activity change, negative = growth inhibition” value was inactive: -9.43%.
In the case of `COc1ccc(CC(=O)Nc2sc3c(c2C(N)=O)CCCC3)cc1OC`, the Potency is reported as inconclusive [inhibitor, single point].
With `Cc1ccccc1C(=O)Nc1cccc(C(=O)OCc2cc(=O)n3c4c(sc3n2)CCCC4)c1` the Potency was inconclusive [inhibitor, partial curve].
With `CCCCCC(=O)NNC(=S)NC(=O)c1cccc([N+](=O)[O-])c1` the Potency was active: 14.6 µM.
In the case of `O=C(CSc1nc2ccccc2n1Cc1ccccc1F)NCc1ccccc1`, the Potency is reported as inconclusive [inhibitor, single point].
For `CC[C@@]12C(=O)N(c3cccc(C)c3)C(=O)N1[C@H](c1ccc(Br)cc1)[C@@H]1C(=O)N(C(C)(C)C)C(=O)[C@@H]12`, the Potency was inconclusive [inhibitor, single point].
In the case of `Cc1cc(-c2nn(-c3ccccc3F)cc2CN2CCC(C(N)=O)CC2)c(C)s1`, the activity change, negative = growth inhibition is reported as inconclusive: -30.7% [inhibitor].
With `O=C(O)c1ccccc1C(=O)NCC(O)COCC1CC=CCC1` (stereo not given) the “activity change, negative = growth inhibition” value was inactive: -0.781%.
In the case of `O=C(NCCc1c[nH]c2ccccc12)C(=O)c1c[nH]c2ccccc12`, the Potency is reported as inconclusive [inhibitor, single point].
In the case of `Cc1nnc(N/N=C/c2c[nH]c3ccccc23)[nH]c1=O`, the Potency is reported as inconclusive [inhibitor, single point].
In the case of `O=C(c1cccc2ccccc12)C1CCCN(C(=O)C2CCOCC2)C1` (stereo not given), the Potency is reported as inconclusive [inhibitor, single point].
With `COc1ccc(CNC(=O)C2CCN(C(=O)c3csc(Nc4ccc(C)cc4)n3)CC2)cc1` the Potency was inconclusive [inhibitor, partial curve, poor fit].
In the case of `Cc1ccc(-c2csc(N=C(N)N)n2)cc1`, the “activity change, negative = growth inhibition” value is reported as inactive: -21.1%.
In the case of `O=C(NC(=S)Nc1ccc(S(=O)(=O)N2CCCC2)cc1)C1CCC1`, the Potency is reported as inconclusive [inhibitor, partial curve].
In the case of `Nc1ncnc2c1ncn2[C@@H]1O[C@H](COP(=O)(O)OP(=O)(O)OP(=O)(O)OP(=O)(O)OC[C@@H]2O[C@H](n3cnc4c(N)ncnc43)[C@@H](O)[C@H]2O)[C@@H](O)[C@H]1O`, the Potency is reported as inconclusive [inhibitor, partial curve, poor fit].
With `Nc1n[nH]c(N)c1N=Nc1ccc(Cl)cc1Cl` the “activity change, negative = growth inhibition” value was inactive: 1.17%.
With `CCc1nc(NCCO)c(C#N)c2c1CSC(C)(C)C2` the Potency was inconclusive [inhibitor, single point].
In the case of `Cc1cccc(OC2CCN(Cc3c(C(=O)N4CCCC4)nc4ccccn34)CC2)c1`, the Potency is reported as inconclusive [inhibitor, single point].
With `O=C(Nc1ccccc1Cl)/C(Cl)=C(\Cl)S(=O)c1ccccc1` (stereo not given) the Potency was active: 0.164 µM.
In the case of `COc1ccccc1OCC(=O)Nc1ccc(CSc2ccccc2)cc1C`, the Potency is reported as inconclusive [inhibitor, single point].
In the case of `Cc1ccc2oc3c(c(=O)c2c1)C(c1ccccc1F)N(CCCN1CCOCC1)C3=O` (stereo not given), the Potency is reported as inconclusive [inhibitor, single point].
With `CC(=O)Nc1ccc(S(=O)(=O)N2CCc3cc4c(cc3C2)OCCCO4)cc1` the Potency was active: 20.6 µM.
With `Cc1ccc2nc(-c3ccc(N4C(=N)SC5CS(=O)(=O)CC54)cc3)sc2c1` (stereo not given) the Potency was inconclusive [inhibitor, single point].
With `Cc1ccc(-n2c(SCC(=O)NCc3ccc(F)cc3)nc3c([nH]c4ccccc43)c2=O)cc1` the Potency was active: 18.4 µM.
With `Cc1ccc(NC(=O)CSc2nnc(CNC(=O)c3ccco3)n2C)cc1C` the “activity change, negative = growth inhibition” value was inactive: -11.3%.
In the case of `Oc1ccccc1C(=S)N1CCN(c2cccc(Cl)c2)CC1`, the Potency is reported as active: 23.1 µM.
In the case of `Cc1cc(C)cc(N(C(=O)CCC(=O)Nc2cc(C)on2)C(C(=O)NC2CCCC2)c2ccco2)c1` (stereo not given), the Potency is reported as inconclusive [inhibitor, single point].
With `O=C(Nc1cccnc1)c1ccc(COc2ccccc2Cl)o1` the Potency was active: 18.4 µM.
In the case of `CCN(CC)S(=O)(=O)c1ccc(N2CCCC2)c(NC(=O)Cc2ccccc2)c1`, the Potency is reported as inconclusive [inhibitor, single point].
In the case of `Fc1ccc(Nc2ncnc3sc4c(c23)CCC4)cc1F`, the “activity change, negative = growth inhibition” value is reported as inactive: -3.52%.
For `COc1cc2c(cc1OC)C(COc1ccc(F)cc1)N(C(=O)Cc1ccc(F)cc1)CC2` (stereo not given), the Potency was active: 25.9 µM.
With `CCc1ccc2[nH]c3nc(SCc4nnc(-c5ccc(C)cc5)o4)nnc3c2c1` the Potency was inconclusive [inhibitor, single point].
For `CSc1nsc(SC)c1C(=O)Nc1ccc(C(C)(C)C)cc1`, the Potency was inconclusive [inhibitor, single point].
With `COC(=O)Cc1c[nH]c2cccc(OCC(O)CN(Cc3ccccc3)C(C)C)c12` (stereo not given) the Potency was inconclusive [inhibitor, single point].
In the case of `COc1cc(C(=O)NNC(=S)Nc2ccc(S(N)(=O)=O)cc2)cc(OC)c1OC`, the “activity change, negative = growth inhibition” value is reported as inactive: 3.18%.
In the case of `Cc1ccc(CNC(=O)CSc2c3c(nc4cc(Cl)ccc24)CCCC3)o1`, the Potency is reported as inconclusive [inhibitor, single point].
With `NC(=O)CC(NC(=O)Cc1ccc(Cl)cc1)c1ccc(N2CCN(c3ccccn3)CC2)c([N+](=O)[O-])c1` (stereo not given) the Potency was inconclusive [inhibitor, single point].
For `COc1ccc(C2(C(=O)Nc3ccc(S(N)(=O)=O)cc3)CCCC2)cc1`, the Potency was inconclusive [inhibitor, single point].
In the case of `CN1CCCC1CN1CCCC1` (stereo not given), the “activity change, negative = growth inhibition” value is reported as inactive: -11.7%.
In the case of `CCn1nc(C)c(/C=N/NC(=O)c2ccc3c(c2)c(C)c(C)n3Cc2ccccc2)c1C`, the Potency is reported as active: 10.3 µM.
In the case of `CCN(CC)S(=O)(=O)c1cc(C(=O)NC2CCCCC2)ccc1C`, the Potency is reported as inconclusive [inhibitor, single point].
In the case of `CC(=O)c1ccc(N2CCN(C(C)C(=O)NC3CCCc4ccccc43)CC2)cc1` (stereo not given), the Potency is reported as inconclusive [inhibitor, single point].
For `COc1ccc(NS(=O)(=O)c2c(C(=O)N3CCCCCC3)c(C)n(C)c2C)cc1`, the Potency was inconclusive [inhibitor, single point].
With `COc1cc(C(=O)NCC2(c3ccccc3)CCCC2)ccc1OC(C)C` the Potency was active: 20.6 µM.
For `COc1ccccc1OCCC(=O)OCC(=O)NC(=O)NC(C)(C)C`, the Potency was inconclusive [inhibitor, single point].
For `Cc1ccc(CN(C(=O)COc2cccc([N+](=O)[O-])c2)c2ccccn2)cc1`, the Potency was inconclusive [inhibitor, partial curve].
With `Cc1ccc(Nc2nnc(-c3ccc(N4CCOCC4)c([N+](=O)[O-])c3)c3ccccc23)cc1` the Potency was active: 11.6 µM.
In the case of `CCOC(=O)C1CCN(c2ncnc3c2nnn3C)CC1`, the “activity change, negative = growth inhibition” value is reported as inactive: -8.66%.
With `Cc1ccc2c(Cl)c(C)c(N3CCOCC3)nc2n1` the “activity change, negative = growth inhibition” value was inactive: 20.9%.
In the case of `COc1ccc(CCN(C)C(=O)CSc2nc3ncc(Cl)cc3[nH]2)cc1OC`, the “activity change, negative = growth inhibition” value is reported as inactive: 12.2%.
With `Cn1nnnc1SCCNCc1ccccc1OCc1ccc(F)cc1` the “activity change, negative = growth inhibition” value was inactive: -7.32%.
In the case of `Cc1cc(NC(=O)C2CCCCC2)nc2c1c(=O)oc1ccccc12`, the Potency is reported as inconclusive [inhibitor, partial curve, poor fit].

Source: PubChem BioAssay AID686979 (National Center for Advancing Translational Sciences (NCATS), 2013)
% is set by controls: 0 for no effect and ±100 for the full control effect; potency is the fitted concentration of half-maximal effect; tags give direction and shape of the fitted curve.
